Some of the results follow. Cut-off read from the data, not from the text of the source: active = 3.2 or more and inactive = the rest. The signal is at background level for most entries.
Key:
Experiment in all cases: enrichment score (SH2-bound / input frequency) (ratio); bacterial display of known human phosphotyrosine sites (pTyr-Var adds point mutants) read by sequencing; higher = stronger binding; tyrosines were phosphorylated by kinases first
Conditions in all cases: peptide library: pTyr-Var
SHP2 C-SH2 domain E139D = target: SHP2 C-SH2 domain E139D
[1] = target: SHP2 C-SH2 domain wild-type
SHP2 N-SH2 domain L43F = target: SHP2 N-SH2 domain L43F
SHP2 N-SH2 domain T42A = target: SHP2 N-SH2 domain T42A
SHP2 N-SH2 domain T52S = target: SHP2 N-SH2 domain T52S
[2] = target: SHP2 N-SH2 domain wild-type

Measured: enrichment score
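Note: displayed peptides selected on beads carrying the immobilized SH2 domain, with library peptides lacking any tyrosine serving as negative controls.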

SSSAIYDNPNL [DCP1B_Y191]
inactive: SHP2 C-SH2 domain E139D 0.485 | [1] 0.581 | SHP2 N-SH2 domain L43F 0.458 | SHP2 N-SH2 domain T42A 0.474 | SHP2 N-SH2 domain T52S 0.591 | [2] 0.631

SSSAIYDNPDL [DCP1B_Y191_N195D]
inactive: SHP2 C-SH2 domain E139D 0.686 | [1] 0.528 | SHP2 N-SH2 domain L43F 0.684 | SHP2 N-SH2 domain T42A 0.687 | SHP2 N-SH2 domain T52S 0.756 | [2] 0.751

QDDTVYMGKVT [DCTN1_Y1244]
inactive: SHP2 C-SH2 domain E139D 0.594 | [1] 1.08 | SHP2 N-SH2 domain L43F 0.876 | SHP2 N-SH2 domain T42A 0.65 | SHP2 N-SH2 domain T52S 0.794 | [2] 0.873

PQAVRYIYTID [DCX_Y103_G100A]
inactive: SHP2 C-SH2 domain E139D 1.9 | SHP2 N-SH2 domain L43F 1.48 | SHP2 N-SH2 domain T42A 2.77 | SHP2 N-SH2 domain T52S 1.38 | [2] 1.2
active: [1] 4.71

GVRYIYTIDGS [DCX_Y105]
active: [1] 4.5 | SHP2 N-SH2 domain T42A 3.25
inactive: SHP2 C-SH2 domain E139D 2.31 | SHP2 N-SH2 domain L43F 1.18 | SHP2 N-SH2 domain T52S 1.19 | [2] 1.08

AVRYIYTIDGS [DCX_Y105_G100A]
active: [1] 4.4
inactive: SHP2 C-SH2 domain E139D 2.18 | SHP2 N-SH2 domain L43F 1.22 | SHP2 N-SH2 domain T42A 2.94 | SHP2 N-SH2 domain T52S 1.28 | [2] 1.01

GVSYIYTIDGS [DCX_Y105_R102S]
inactive: SHP2 C-SH2 domain E139D 1.92 | SHP2 N-SH2 domain L43F 1.07 | SHP2 N-SH2 domain T52S 1.2 | [2] 0.941
active: [1] 4.1 | SHP2 N-SH2 domain T42A 3.36

GVSFIYTIDGS [DCX_Y105_R102S_YF]
inactive: SHP2 C-SH2 domain E139D 0.864 | [1] 0.805 | SHP2 N-SH2 domain L43F 1.16 | SHP2 N-SH2 domain T42A 0.819 | SHP2 N-SH2 domain T52S 0.919 | [2] 1.16

EEGESHVCSSD [DCX_Y125_Y125H]
inactive: SHP2 C-SH2 domain E139D 0.577 | [1] 0.445 | SHP2 N-SH2 domain L43F 0.503 | SHP2 N-SH2 domain T42A 0.569 | SHP2 N-SH2 domain T52S 0.513 | [2] 0.582

RNGNRYFKGIV [DCX_Y64_D62N]
inactive: SHP2 C-SH2 domain E139D 0.432 | [1] 0.399 | SHP2 N-SH2 domain L43F 0.431 | SHP2 N-SH2 domain T42A 0.329 | SHP2 N-SH2 domain T52S 0.333 | [2] 0.315

FKGIVYSVSSD [DCX_Y70_A71S]
inactive: SHP2 C-SH2 domain E139D 0.672 | [1] 0.873 | SHP2 N-SH2 domain L43F 0.922 | SHP2 N-SH2 domain T42A 0.752 | SHP2 N-SH2 domain T52S 0.789 | [2] 0.908

PLCPDYQEPSR [DDR2_Y481_R478C]
inactive: SHP2 C-SH2 domain E139D 0.944 | [1] 0.715 | SHP2 N-SH2 domain L43F 0.853 | SHP2 N-SH2 domain T42A 0.924 | SHP2 N-SH2 domain T52S 0.708 | [2] 1.28

MSRNLYSGDYY [DDR2_Y736]
inactive: SHP2 C-SH2 domain E139D 0.72 | [1] 0.624 | SHP2 N-SH2 domain L43F 0.68 | SHP2 N-SH2 domain T42A 0.553 | SHP2 N-SH2 domain T52S 0.64 | [2] 0.708

MSRNLYSGDCY [DDR2_Y736_Y740C]
inactive: SHP2 C-SH2 domain E139D 0.835 | [1] 0.889 | SHP2 N-SH2 domain L43F 0.756 | SHP2 N-SH2 domain T42A 0.534 | SHP2 N-SH2 domain T52S 0.6 | [2] 1.08

LYSGDCYRIQG [DDR2_Y740_Y740C]
inactive: SHP2 C-SH2 domain E139D 0.889 | [1] 1.02 | SHP2 N-SH2 domain L43F 0.837 | SHP2 N-SH2 domain T42A 0.68 | SHP2 N-SH2 domain T52S 0.647 | [2] 1.01

YSGDCYRIQGR [DDR2_Y741_Y740C]
inactive: SHP2 C-SH2 domain E139D 0.56 | [1] 0.691 | SHP2 N-SH2 domain L43F 0.643 | SHP2 N-SH2 domain T42A 0.697 | SHP2 N-SH2 domain T52S 0.75 | [2] 0.651

QGRQTYLLQPA [DDR2_Y813_P815L]
inactive: SHP2 C-SH2 domain E139D 0.805 | [1] 0.899 | SHP2 N-SH2 domain L43F 0.958 | SHP2 N-SH2 domain T42A 0.652 | SHP2 N-SH2 domain T52S 0.793 | [2] 0.778

GGGFGYQKTKK [DDX18_Y643]
inactive: SHP2 C-SH2 domain E139D 0.893 | [1] 1.07 | SHP2 N-SH2 domain L43F 0.981 | SHP2 N-SH2 domain T42A 0.675 | SHP2 N-SH2 domain T52S 0.709 | [2] 1.13

GGGFGYQKTRK [DDX18_Y643_K647R]
inactive: SHP2 C-SH2 domain E139D 0.771 | [1] 0.634 | SHP2 N-SH2 domain L43F 0.54 | SHP2 N-SH2 domain T42A 0.425 | SHP2 N-SH2 domain T52S 0.615 | [2] 0.497

KALKQYRASPS [DDX27_Y763_G766S]
inactive: SHP2 C-SH2 domain E139D 0.371 | [1] 0.383 | SHP2 N-SH2 domain L43F 0.371 | SHP2 N-SH2 domain T42A 0.359 | SHP2 N-SH2 domain T52S 0.33 | [2] 0.51

QLDQRYLLVPE [DDX49_Y223]
inactive: SHP2 C-SH2 domain E139D 0.777 | [1] 0.602 | SHP2 N-SH2 domain L43F 0.665 | SHP2 N-SH2 domain T42A 0.649 | SHP2 N-SH2 domain T52S 0.693 | [2] 0.766

TQNGVYSAANY [DDX5_Y535]
inactive: SHP2 C-SH2 domain E139D 0.701 | [1] 0.68 | SHP2 N-SH2 domain L43F 0.604 | SHP2 N-SH2 domain T42A 0.53 | SHP2 N-SH2 domain T52S 0.712 | [2] 0.667

KHASTYREAAT [DEAF1_Y483]
inactive: SHP2 C-SH2 domain E139D 0.806 | [1] 0.696 | SHP2 N-SH2 domain L43F 0.707 | SHP2 N-SH2 domain T42A 0.615 | SHP2 N-SH2 domain T52S 0.633 | [2] 0.595

IVAEYYDNLPH [DEGS1_Y284_A280V]
inactive: SHP2 C-SH2 domain E139D 1.16 | [1] 1.15 | SHP2 N-SH2 domain L43F 1.22 | SHP2 N-SH2 domain T42A 1.17 | SHP2 N-SH2 domain T52S 0.915 | [2] 0.987

IVAEFYDNLPH [DEGS1_Y284_A280V_YF]
inactive: SHP2 C-SH2 domain E139D 0.905 | [1] 0.653 | SHP2 N-SH2 domain L43F 0.823 | SHP2 N-SH2 domain T42A 0.806 | SHP2 N-SH2 domain T52S 0.911 | [2] 0.803

KRTFEYEADKN [DENND2B_Y396]
inactive: SHP2 C-SH2 domain E139D 0.56 | [1] 0.598 | SHP2 N-SH2 domain L43F 0.533 | SHP2 N-SH2 domain T42A 0.573 | SHP2 N-SH2 domain T52S 0.46 | [2] 0.724

HQIQSYTCEID [DES_Y331]
inactive: SHP2 C-SH2 domain E139D 0.771 | [1] 0.663 | SHP2 N-SH2 domain L43F 0.719 | SHP2 N-SH2 domain T42A 0.713 | SHP2 N-SH2 domain T52S 0.645 | [2] 0.599

RHLREYQDLLI [DES_Y388_N393I]
inactive: SHP2 C-SH2 domain E139D 1.79 | [1] 1.96 | SHP2 N-SH2 domain L43F 2 | SHP2 N-SH2 domain T42A 1.75 | SHP2 N-SH2 domain T52S 1.78 | [2] 2.12

RHLREYPDLLN [DES_Y388_Q389P]
inactive: SHP2 C-SH2 domain E139D 1.42 | [1] 1.02 | SHP2 N-SH2 domain L43F 1.21 | SHP2 N-SH2 domain T42A 1.07 | SHP2 N-SH2 domain T52S 1.05 | [2] 1.44

LPIQTYSALNF [DES_Y423]
inactive: SHP2 C-SH2 domain E139D 1.18 | [1] 1.16 | SHP2 N-SH2 domain L43F 3.13 | [2] 1.19
active: SHP2 N-SH2 domain T42A 4.41 | SHP2 N-SH2 domain T52S 3.59

LSIQTYSALNF [DES_Y423_P419S]
active: SHP2 N-SH2 domain L43F 5.91 | SHP2 N-SH2 domain T42A 6.55 | SHP2 N-SH2 domain T52S 5.75
inactive: SHP2 C-SH2 domain E139D 2.26 | [1] 2.9 | [2] 2.18

GMIQAYSSSQR [DES_Y5_S2I]
inactive: SHP2 C-SH2 domain E139D 0.884 | [1] 0.646 | SHP2 N-SH2 domain L43F 0.757 | SHP2 N-SH2 domain T42A 0.571 | SHP2 N-SH2 domain T52S 0.576 | [2] 0.946

ITNHIYTWVDP [DFNB31_Y234_V229I]
inactive: SHP2 C-SH2 domain E139D 1.88 | [1] 1.87 | SHP2 N-SH2 domain L43F 1.57 | SHP2 N-SH2 domain T42A 1.71 | SHP2 N-SH2 domain T52S 1.94 | [2] 1.95

CTLLPYYSARV [DGKE_Y269]
inactive: SHP2 C-SH2 domain E139D 0.834 | [1] 1.07 | SHP2 N-SH2 domain L43F 0.921 | SHP2 N-SH2 domain T42A 0.807 | SHP2 N-SH2 domain T52S 0.709 | [2] 1.02

CTLLPYYSAPV [DGKE_Y269_R273P]
inactive: SHP2 C-SH2 domain E139D 1.2 | [1] 1.64 | SHP2 N-SH2 domain L43F 1.35 | SHP2 N-SH2 domain T42A 1.03 | SHP2 N-SH2 domain T52S 1.09 | [2] 1.71

CTLLPYFSAPV [DGKE_Y269_R273P_YF]
inactive: SHP2 C-SH2 domain E139D 1.04 | [1] 1.55 | SHP2 N-SH2 domain L43F 1.19 | SHP2 N-SH2 domain T42A 1.1 | SHP2 N-SH2 domain T52S 1.04 | [2] 1.34

CTLLPYFSARV [DGKE_Y269_YF]
inactive: SHP2 C-SH2 domain E139D 0.794 | [1] 0.988 | SHP2 N-SH2 domain L43F 0.877 | SHP2 N-SH2 domain T42A 0.845 | SHP2 N-SH2 domain T52S 0.89 | [2] 1.11
